Test results from PubChem BioAssay AID1508624 (National Center for Advancing Translational Sciences (NCATS), 2021).
Out of some 48,000 compounds screened, about 120 (0.25%) were called active. Roughly 4% stayed inconclusive and do not appear here. Calls follow the shape of the dose curve; as a rule, active = well fitted activation curve with a large enough effect; inconclusive = small, poorly fitted or top-dose-only effect, or another doubt; inactive = no such curve, though single readings can be large or run the other way. This is one part of the list.

experiment: Primary qHTS for Identification of Small Molecule Activators of Huntingtin-Antisense Promoter Activity; settings: HEK293 HTT-AS promoter firefly luciferase reporter, 24 h; series mostly up to 57.5 µM; activity change, positive = activation: at the top concentration; also: nearly all actives have a fitted effect of over 55% in size
Method in brief: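 HEK293 luciferase promoter-reporter cells (2,500/well) plated 24 h, then compounds added at up to 57.5 uM final for 24 h at 37 °C. Firefly luminescence by Dual-Glo, normalized to vehicle (0%) and zero RLU (-100%).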

| SMILES | activity change, positive = activation |
| --- | --- |
| Cc1ccc(-n2ncc(C(=O)N3CCN(c4cccc(C)c4)C(C)C3)c2C2CCN(C(=O)OC(C)(C)C)CC2)cc1 (stereo not drawn) | inactive: -12.4% |
| Cc1nn(CCCC(=O)NCc2ccc(F)cc2)c(=O)c2c1sc1ccccc12 | inactive: 8.15% |
| CCOc1ccc(N2CC(c3nc4ccccc4n3Cc3cccc(Cl)c3)CC2=O)cc1 (stereo not drawn) | inactive: -24% |
| CCOc1ccc2nc(NC(=O)c3cc(=O)c4ccc(C)cc4o3)sc2c1 | inactive: -2.68% |
| CCN1CCSc2ccc(C(=O)NC(C)c3ccccc3)cc21 (stereo not drawn) | inactive: -14% |
| O=C(NCc1ccc(Cl)cc1)c1cc(S(=O)(=O)N2CCCCC2)c[nH]1 | inactive: -18.1% |
| Cc1cc(C)cc(C(=O)Nc2ccc(-c3nc4ncccc4o3)cc2)c1 | inactive: 3.52% |
| Cc1c2cnn(CC(=O)N3CCN(c4ccc(F)cc4)CC3)c(=O)c2c(C)n1Cc1ccc(F)cc1 | inactive: -23.2% |
| COc1c(C)cc(S(=O)(=O)NCCc2c(C)[nH]c3ccccc23)c(C)c1C | inactive: -14.2% |
| CCOC(=O)c1cc(-c2ccccc2)n(-c2cccc(C(=O)Nc3ccc(F)c(F)c3)c2)c1C | inactive: -33.2% |
| COc1ccccc1CNC(=O)CCn1c(=O)c2ccccc2n(CC(=O)Nc2cccc(Cl)c2)c1=O | inactive: -36.9% |
| CC(=O)N1CCOc2cc(S(=O)(=O)Nc3cccc(C(F)(F)F)c3)c(Cl)cc21 | inactive: -32% |
| CCOC(=O)c1ccccc1NC(=O)C(=O)Nc1ccc2nc3n(c(=O)c2c1)CCCCC3 | inactive: -12.9% |
| CCc1cccc(-n2c(C)nc3c(cnn3-c3ccc(Cl)cc3)c2=O)c1 | inactive: -53.5% |
| COc1ccc(NC(=O)C2CCN(S(=O)(=O)c3ccc4[nH]c(=O)ccc4c3)CC2)c(OC)c1 | inactive: -6.72% |
| Cc1cn2c(=O)cc(COc3cccc(NC(=O)c4ccccc4C)c3)nc2s1 | inactive: -25.2% |
| COc1ccc(OC)c(NC(=O)Cc2coc3ccc(C(C)C)cc23)c1 | inactive: -29% |
| CCOC(=O)c1[nH]c(C)c(CCC(=O)NCc2ccccc2)c1C | inactive: -6.2% |
| CCOC(=O)c1c(-c2ccccc2)oc2ccc(N(C(C)=O)S(=O)(=O)c3cc(C)ccc3C)cc12 | inactive: -6.74% |
| Cc1cc(C)cc(NC(=O)N2CCC(N3CCCCC3)CC2)c1 | inactive: 4.92% |
| CCOc1ccc(CNC(=O)C2CCN(c3nnc(-n4cccc4CNc4ccc(C)cc4)s3)CC2)cc1OC | inactive: -33.6% |
| Cc1ccc(O)c(C(CC(=O)NCC2(c3ccccc3)CCCC2)c2ccccc2)c1 (stereo not drawn) | inactive: -53.5% |
| CCc1c(C)nc(SCC(=O)N2CCN(c3ccccc3OC)CC2)[nH]c1=O | inactive: -12.8% |
| COc1ccc(OC)c(NC(=O)c2cc3c(=O)oc4ccccc4c3s2)c1 | inactive: -2.46% |

| SMILES | activity change, positive = activation |
| --- | --- |
| CCN(CC)c1nn2c(=O)c(C(=O)NCCc3ccccc3)cnc2s1 | inactive: -3.08% |
| Cc1ccc(C)c(NC(=O)c2ccc3c(O)c(S(=O)(=O)c4ccc(Cl)cc4)c(=O)[nH]c3c2)c1 | inactive: -11.2% |
| Cc1cc2c(cc1S(=O)(=O)NCc1ccccc1Cl)OCCN2C | inactive: -14% |
| CCCCSCCCNC(=O)CN1C(=O)c2cccnc2Oc2ccc(Cl)cc21 | inactive: -11.5% |
| CCOc1ccc(-c2nonc2NC(=O)c2oc3cc(C)ccc3c2C)cc1 | inactive: -34.2% |
| Fc1ccc(-c2noc3ncnc(N4CCN(c5ccccc5)CC4)c23)cc1 | inactive: -21.7% |
| COc1ccc(S(=O)(=O)N2CCN(c3ccccc3F)CC2)cc1-c1noc(C)n1 | inactive: 7.74% |
| O=C(NCc1ccc(F)cc1)c1ccc2c(Cl)c3c(nc2c1)CCCC3 | inactive: -16.9% |
| COc1ccc(Cl)cc1Nc1sc(C(=O)c2ccccc2)c(N)c1C(=O)Nc1ccccc1 | inactive: -29.1% |
| CC(=O)N1CCc2cc(CNS(=O)(=O)c3ccc(F)cc3)ccc21 | inactive: 0.808% |
| CCc1ccc(-c2cn3c(n2)sc2cc(C(=O)NC4CCCCCC4)ccc23)cc1 | inactive: 6.38% |
| O=C(NCc1cccc(Cl)c1)c1cc2c(s1)-c1ccccc1OC2 | inactive: -7.14% |
| CCc1c(C)sc2c1CCN(Cc1cccc(F)c1)C2c1ccccc1 (stereo not drawn) | inactive: -44% |
| COCCc1nn2c(=O)cc(COC(=O)c3ccc4c(c3)OCO4)nc2s1 | inactive: -5.59% |
| Cc1ccc(NC2=C(c3ccc(C(F)(F)F)cc3)C(=O)c3ccccc32)cc1C | inactive: 19.6% |
| CC(=O)Nc1ccc(C(=O)CSc2nnc(-c3ccccc3)n2-c2ccccc2)cc1 | inactive: -7.46% |
| Cc1ccc(-c2cc(C(=O)NCc3cnn(C)c3C)c3cc(Br)ccc3n2)cc1 | inactive: 6.57% |
| Cc1ccc(S(=O)(=O)c2nc(-c3ccccc3F)oc2N2CCCCC2)cc1 | inactive: -49.1% |
| CCOC(=O)c1c(C)[nH]c(CCC(=O)NCCCN2CCN(c3ccc(F)cc3)CC2)c1C | inactive: -20.2% |
| CCCCCCCCCCCCCCCC[N+](C)(C)CCN(Cc1ccc(OC)cc1)c1ncccn1 | inactive: -39.2% |
| CCOC(=O)c1ccccc1NC(=O)Cn1cc(C(=O)c2cccc(OC)c2)c(=O)c2ccc(C)nc21 | inactive: -17.4% |
| Cc1cccc(-c2nc(S(=O)(=O)c3ccc(F)cc3)c(N3CCN(c4ccccc4)CC3)o2)c1 | inactive: -12% |
| Cc1ccc(CCNC(=O)c2ccc3c(c2)N(Cc2cccc(C)c2)C(=O)c2ccccc2S3(=O)=O)cc1 | inactive: -15.1% |
| CC(C)c1ccc(NC(=O)c2cc3c(s2)-c2ccccc2SC3)cc1 | inactive: -9.55% |

| SMILES | activity change, positive = activation |
| --- | --- |
| Cc1cc(=O)[nH]c2nnc(SCC(=O)NC(C)(C)C)n12 | inactive: -12.5% |
| O=C(CN1C(=O)COc2ccc(S(=O)(=O)N3CCCCCC3)cc21)NCc1ccc(Cl)cc1 | inactive: -32.3% |
| CCc1ccc(N=C2NC(=O)CC(C(=O)Nc3ccc(OC)cc3)S2)cc1 (stereo not drawn) | inactive: 15.7% [at 11.5 µM, percent change from vehicle, -100% = no light] |
| COc1cc2c(cc1OC)C(COc1ccccc1OC)N(C(=O)CC(C)C)CC2 (stereo not drawn) | inactive: -20.8% |
| Cc1ccc(C(=O)N2CCc3cc(CNS(=O)(=O)c4ccc(Cl)s4)ccc32)cc1 | inactive: -32.7% |
| O=C(Nc1ccc(NC(=O)c2cc3ccccc3o2)cc1)c1ccccc1 | inactive: 4.4% |
| Cn1cc(S(=O)(=O)c2ccc(Cl)cc2)c(=O)c2cc(F)c(N3CCCCCC3)cc21 | inactive: -15.1% |
| O=C(CN1CCN(S(=O)(=O)c2cc(Cl)ccc2Cl)CC1)Nc1cccc(F)c1 | inactive: -32.9% |
| CC(C(=O)Nc1cccc(C#N)c1)n1nc(-c2ccccc2)c2c(c1=O)CCCC2 (stereo not drawn) | inactive: -24% |
| Fc1ccc(-c2nc(Nc3ccc(F)c(Cl)c3)nc3c2COc2ccccc2-3)cc1 | inactive: -13.4% |
| CCOc1ccc(C2CC(=O)n3nc(-c4ccc(C)cc4)nc3S2)cc1OC (stereo not drawn) | inactive: -2.59% |
| CC1=C(C(=O)Nc2ccc(C)cc2C)C(c2ccccc2[N+](=O)[O-])n2ncc(C(=O)Nc3ccccc3)c2N1 (stereo not drawn) | inactive: 15.1% |
| CCOC(=O)C1CCCN(C(=O)c2ccc3c(c2)N(Cc2ccccc2)C(=O)c2ccccc2S3(=O)=O)C1 (stereo not drawn) | inactive: 3.14% |
| O=C(NC1CC1)c1ccc(Cn2c(SCc3cccc(F)c3)nc3cccnc32)cc1 | inactive: -15.2% |
| O=C(NCC(c1cccnc1)N1CCc2ccccc2C1)c1ccc(F)c(F)c1 (stereo not drawn) | inactive: -22.9% |
| O=C(Nc1ccc(Cl)cc1)C1CCN(c2nc3ccccc3nc2C(F)(F)F)CC1 | inactive: 2.99% |
| COc1ccccc1N1CCN(C(=O)c2ccc(CS(=O)c3ccccc3C)o2)CC1 (stereo not drawn) | inactive: -27.4% |
| COc1ccc(CCN2C(=O)c3oc4cc(C)cc(C)c4c(=O)c3C2c2ccc(F)cc2)cc1OC (stereo not drawn) | inactive: -6.55% |
| CCS(=O)(=O)N1CCc2cc(C(=O)NCc3ccc(OC)cc3)ccc21 | inactive: -13.4% |
| Cn1cc(S(=O)(=O)c2cccc(Cl)c2)c(=O)c2cc(F)c(N3CCCCCC3)cc21 | inactive: 6.03% |
| CCC(CC)C(=O)Nc1ccc(OCc2cc(=O)n3c4c(sc3n2)CCCC4)cc1 | inactive: -12.2% |
| O=C(O)P(=O)(O)O | inactive: -1.58% |
| COc1cccc(-c2nnc3n(Cc4ccc(F)cc4)c(=O)c4ccccc4n23)c1 | inactive: 0% |
| COc1ccc(CCNC(=O)NCc2noc3ccccc23)c(OC)c1 | inactive: -12.8% |

| SMILES | activity change, positive = activation |
| --- | --- |
| CN(C)c1ccc(C(CNS(=O)(=O)c2ccc(Cl)cc2)N2CCCC2)cc1 (stereo not drawn) | inactive: -20.4% |
| CC(C)NCC(O)c1ccc(NS(C)(=O)=O)cc1 (stereo not drawn) | inactive: -0.025% |
| COc1cc(C(=O)NCC(c2cccnc2)N2CCN(c3ccc(F)cc3)CC2)cc(OC)c1OC (stereo not drawn) | inactive: -16.5% |
| Cc1cccc(-c2nc3c(C#N)c[nH]n3c2NC2CCCCC2)c1 | inactive: 40% |
| Cc1ccc(-c2noc(CN(C3CCCCC3)S(=O)(=O)c3ccc(C)cc3)n2)cc1 | inactive: -27.3% |
| Cc1nn(-c2ccc3nncn3n2)c(C)c1CCC(=O)Nc1ccc(OC(F)(F)F)cc1 | inactive: -15.3% |
| Cc1ccccc1CNC(=O)c1ccc(-n2c(C)cc3c2CCCC3)cc1 | inactive: -2.71% |
| CO[C@H]1C=CC=C(C)C(=O)NC2=CC(=O)C(NCCN(C)C)=C(C[C@@H](C)C[C@H](OC)[C@@H](O)[C@@H](C)C=C(C)[C@@H]1OC(N)=O)C2=O | inactive: -91.7% |
| C#C[C@]1(O)CC[C@H]2[C@@H]3CCc4cc(OC)ccc4[C@H]3CC[C@@]21C | inactive: 5.21% |
| COc1ccccc1CNC(=O)C1CCN(Cc2nc(-c3ccc(OC)c(OC)c3)oc2C)CC1 | inactive: -22.7% |
| CCCCN(C)CCNC(=O)c1cc(-c2cccnc2)nc2ccc(S(=O)(=O)N3CCC(C)CC3)cc12 | inactive: -3.53% |
| Cc1ccn2c(c1)nc(=O)c1cc(S(=O)(=O)N3CCC(C)CC3)c(Cl)cc12 | inactive: -2.26% |
| CN(C)C(=O)c1ccc(S(=O)(=O)c2ccc(NC(=O)[C@@](C)(O)C(F)(F)F)c(Cl)c2)cc1 | inactive: -51% |
| CN(Cc1ccccc1)c1nc(-c2ccc(F)cc2)cc(C(F)(F)F)n1 | inactive: -12.6% |
| O=C(COc1ccccc1F)Nc1ccc(C(=O)OCc2cc(=O)n3nc(C4CC4)sc3n2)cc1 | inactive: 9.98% |
| Cc1ccc(NC(=O)CCSCCc2ccccn2)cc1 | inactive: -12.5% |
| Cc1ccc(-c2cc3ncc(C(=O)c4cc([N+](=O)[O-])ccc4O)cn3n2)cc1 | inactive: -28.9% |
| CCc1ccc(-n2c(C)nnc2SCc2nc(-c3ccc(OC)cc3)no2)cc1 | inactive: -27.6% |
| O=C(Nc1ccc(Cl)cc1Cl)c1cc(S(=O)(=O)N2CCN(c3ccccc3F)CC2)ccc1F | inactive: -13.7% |
| CC1=C(C)C(=O)C(CCCCC#CCCCC#CCO)=C(C)C1=O | inactive: -30.4% |
| COc1ccc(Br)cc1CNC(=O)CCCn1c(=O)c2cccn2c2ccccc21 | inactive: -37.6% |
